# Measured values reported in PubChem BioAssay AID686978 (National Center for Advancing Translational Sciences (NCATS), 2013).
# Where “and” joins values, the source holds several entries; their conditions need not be identical. Equal values may be shown once. Hit rate of the full screen: of about 420,000 compounds, about 64,000 (15%) were called active. Inconclusive results, whose numbers are uncertain, are shown with a selection of clear calls. Calls follow the shape of the dose curve; as a rule, active = well fitted inhibition curve with a large enough effect; inconclusive = small, poorly fitted or top-dose-only effect; inactive = flat fitted curve, though single readings scatter. A potency beside an inconclusive call is a rough fit, not a confirmed value.
# Assay: qHTS for Inhibitors of human tyrosyl-DNA phosphodiesterase 1 (TDP1): qHTS in cells in absence of CPT; also: nearly all actives have a fitted effect of over 55% in size
# Details: DT40 Tdp1-/- hTDP1 cells, no CPT, ATP luminescence, 48 h; activity change, negative = growth inhibition: at 46.2 µM (top of the series) unless noted
# Outline: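 No-CPT arm: Tdp1-/-;hTDP1 DT40 cells (400/well) plus compounds, incubated ≥48 hr at 37 °C. Readout CellTiter-Glo luminescence.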
# % is scaled to controls: 0 for no effect and ±100 for the full control effect; potency is read from the fitted curve at half-maximal effect; tags tell the direction and shape of the fitted curve.
Compound,Potency,"activity change, negative = growth inhibition"
O=C1NC(=O)C(=Cc2ccc(-c3cc(Cl)ccc3[N+](=O)[O-])o2)C(=O)N1,"inconclusive: 29.1 µM [inhibitor, single point]",
Cc1c(CCNS(=O)(=O)c2ccccc2)sc2nc(-c3ccc(Cl)cc3)nn12,active: 9.2 µM,
CC1CCCCC1NC(=O)CNC(=S)N1CC2CC(C1)c1cccc(=O)n1C2 (stereo unspecified),inactive,
CC(NCc1ccc(Cl)cc1Cl)C(O)c1ccccc1 (stereo unspecified),"inconclusive: 18.4 µM [inhibitor, single point]",
Cc1cccc(NP(=O)(Oc2ccccc2F)Oc2ccccc2F)c1C,"inconclusive: 23.1 µM [inhibitor, single point]",
COc1cccc(CCNCc2c(F)cccc2F)c1,inactive,
CNC(=O)Oc1cccc(-c2cn3cc(Cl)ccc3n2)c1,"inconclusive: 18.4 µM [inhibitor, partial curve, poor fit]",
Nc1c(C(=O)NCC2CCCO2)c2nc3ccccc3nc2n1Cc1ccco1 (stereo unspecified),"inconclusive: 18.4 µM [inhibitor, partial curve]",
COc1cc(CNc2ccc3[nH]c(=O)[nH]c3c2)ccc1OCc1ccccc1C,"inconclusive: 23.1 µM [inhibitor, single point]",
CC1C2Cn3c(nc4ccccc43)C1N(C)O2 (stereo unspecified),inactive,
CC(=O)OC1(C)CC(C)C(=O)C(C(O)CC2CC(=O)NC(=O)C2)C1 (stereo unspecified),active: 0.206 µM,
CCOC(=O)C1(CCOc2ccccc2)CCN(Cc2ccc(C)s2)CC1,active: 7.31 µM,
O=C1NC(=O)N(c2ccc(Cl)cc2)C(=O)/C1=C\c1ccc(Sc2nc3ccccc3[nH]2)o1,"inconclusive: 29.1 µM [inhibitor, single point]",
CCOC(=O)N1CCN(C(C)C(=O)c2c[nH]c3ccccc23)CC1 (stereo unspecified),inactive,
CC[N+](CC)(CCCNC1=CC(=O)C(NCCC[N+](CC)(CC)Cc2ccccc2)=CC1=O)Cc1ccccc1,inactive,
CC1C(C)N1CC(O)Cn1ccnc1[N+](=O)[O-] (stereo unspecified),"inconclusive: 29.1 µM [inhibitor, single point]",
C[C@H]1CC2C3CC=C4C[C@@H](O)CC[C@]4(C)C3CC[C@]2(C)[C@H]1O (stereo partly specified),inactive,
CC(=O)Nc1ccccc1C(=O)OCC(=O)c1ccc2c(c1)OCCO2,inactive,
CCN(CC)C(=O)Oc1cc2c(-c3cc4cccc(OC)c4o3)cc(=O)oc2cc1C,active: 23.1 µM,
COC(=O)C1=CO[C@@H](C)[C@@H]2CN(CCc3c[nH]c4ccccc34)CC[C@H]12,"inconclusive: 29.1 µM [inhibitor, single point]",
O=C(Nc1ccc(Cl)c(C(F)(F)F)c1)NC1CC2CCCC(C1)N2Cc1ccccc1 (stereo unspecified),active: 13 µM,
CCC12C=CCN3CCC4(c5cc(Br)c(OC)cc5N(C)C4C(O)(C(=O)OC)C1OC(C)=O)C32 (stereo unspecified),"inconclusive: 29.1 µM [inhibitor, single point]",
CC(=O)O[C@H]1CC[C@@]2(C)C(=CC(=O)C3C2CC[C@@]2(C)C3C[C@H](OC(C)=O)[C@@H]2OC(C)=O)C1 (stereo partly specified),"inconclusive: 20.6 µM [inhibitor, single point]",
c1ccc(Nc2ccc3ccccc3c2)cc1,"inconclusive: 29.1 µM [inhibitor, single point]",

Compound,Potency,"activity change, negative = growth inhibition"
Cc1ccc(NC(=O)NCc2ccc3c(c2)CCN3C(=O)c2ccccc2)c(Cl)c1,active: 23.1 µM,
Cc1ccc(C(O)P(=O)(Oc2ccccc2)Oc2ccccc2)cc1 (stereo unspecified),inactive,
CCCCCNc1c(C(=O)OCC)c(=O)[nH]c2ccccc12,active: 13 µM,
C[C@]12CCC(=O)C[C@@H]1CC[C@@H]1[C@@H]2CC[C@@]2(C)[C@H]1CC[C@]2(C)O,inactive,
CCOC(=O)NC(C)(C)Cc1ccc(Cl)cc1,"inconclusive: 33.5 µM [inhibitor, single point]",
C=CCN(c1ccc(C(=O)N(CC)CC)cc1)S(C)(=O)=O,inactive,
CC1CN(c2ccc([N+](=O)[O-])c3cccnc23)CC(C)N1 (stereo unspecified),active: 23.1 µM,
Cc1ncc(CC(=O)n2cc(C(=O)c3cc(Cl)ccc3O)cn2)s1,"inconclusive: 22.4 µM [inhibitor, single point]",
Cc1ccc(S(=O)(=O)N(C)C[C@H]2Oc3cc(Br)ccc3S(=O)(=O)N([C@H](C)CO)C[C@H]2C)cc1,active: 29.1 µM,
CC(C)N1CCN(Cc2c[nH]c3ccccc23)CC1CCO (stereo unspecified),inactive,
CC1=C(C(=O)Nc2ccccc2)SCCO1,"inconclusive: 23.1 µM [inhibitor, partial curve]",
COc1cc(CN2CCc3nc(N4CCN(c5ncccn5)CC4)ncc3C2)cc(OC)c1OC,active: 8.2 µM,
Cc1ccccc1-c1ccc2c(c1)C1c3c(-c4ccccc4)nnn3-c3ccccc3C(=O)N1CC2 (stereo unspecified),active: 29.1 µM,
O=C(Nc1c(Cl)cccc1Cl)Oc1cccc2cccnc12,active: 4.61 µM,
C[C@]12CCC3C(CC[C@H]4C[C@@H](O)CC[C@]34C)[C@H]1CC[C@H]2O (stereo partly specified),"inconclusive: 25.9 µM [inhibitor, single point]",
CCCCn1c(=O)c(C(=O)Nc2ccccc2F)c(O)c2ccccc21,"inconclusive: 5.8 µM [inhibitor, single point]",
CCOC1=C2[C@@H](CN(S(=O)(=O)c3ccccc3C)[C@H]2c2ccc(Cl)cc2)[C@H]2C(=O)NC(=O)[C@H]2C1,"inconclusive: 29.1 µM [inhibitor, single point]",
Cc1cccc(-n2c(O)c(/C=C/C=Nc3ccccc3)c(=O)[nH]c2=O)c1,,inconclusive: -15.5% [inhibitor]
Cc1cccc(C)c1OP(N)(=O)Oc1c(C)cccc1C,"inconclusive: 29.1 µM [inhibitor, single point]",
O=c1c2ccccc2nc(-c2ccco2)n1-c1ccccn1,"inconclusive: 5.8 µM [inhibitor, single point]",
Cc1ccc2c(c1)[C@H]1[C@H](CO2)[C@H](c2ccccc2)[C@]2(C)C(=O)N(CC3CCCO3)CC(=O)N12 (stereo partly specified),"inconclusive: 23.1 µM [inhibitor, single point]",
CCOC(=O)c1c(-n2c(C)cc(C=C3C(=O)NC(=S)NC3=O)c2C)sc2c1CCCC2,active: 18.4 µM,
O=C(Nc1ccc(Br)cc1)c1cccc(S(=O)(=O)N2CCc3ccccc32)c1,active: 16.4 µM,
CCOc1ccccc1-n1c(O)c(C=NCc2ccc3c(c2)OCO3)c(=O)[nH]c1=O,inactive,

Compound,Potency,"activity change, negative = growth inhibition"
c1ccc(CCc2ccc3n2Cc2cnnn2-c2ccccc2-3)cc1,"inconclusive: 25.9 µM [inhibitor, single point]",
COc1ccccc1-n1c(/C=C/c2ccccn2)nc2ccccc2c1=O,"inconclusive: 18.4 µM [inhibitor, single point]",
OC(CNCCc1c[nH]c2ccccc12)C(F)(F)F (stereo unspecified),inactive,
Cn1c(O)c(C=NCCOc2ccc(Cl)cc2)c(=O)n(C)c1=O,"inconclusive: 23.1 µM [inhibitor, partial curve]",
CC(Cc1ccccc1)NCCC(=O)NC(C)Cc1ccccc1 (stereo unspecified),"inconclusive: 23.1 µM [inhibitor, single point]",
COc1ccc(C(=O)/C=C/c2cccs2)c(OC(=O)N2CCOCC2)c1,"inconclusive: 25.9 µM [inhibitor, single point]",
CCCCn1nnnc1C(CCSC)N1CCC2(CC1)C(=O)NCN2c1ccccc1 (stereo unspecified),"inconclusive: 29.1 µM [inhibitor, single point]",
c1ccc(NC2=NCCS2)cc1,inactive,
CC(CO)NC(=O)C1C=C2c3cccc4[nH]cc(c34)C[C@H]2N(C)C1 (stereo partly specified),inactive,
COc1ccc(Cn2c(O)c(/C=N/NC(=O)c3ccccc3)c(=O)[nH]c2=O)cc1,"inconclusive: 29.1 µM [inhibitor, single point]",
COC(=O)OCC12CCC(O1)C1(C)C(=O)OCC21 (stereo unspecified),active: 29.1 µM,
C[C@H](CCCC(C)(C)O)[C@H]1CC[C@H]2[C@@H]3CC=C4C[C@@H](O)CC[C@]4(C)[C@H]3CC[C@]12C,"inconclusive: 21.1 µM [inhibitor, single point]",
Cc1cc(=O)oc2c(C)c(OCC(=O)N3CCC(C(=O)O)(c4ccccc4)CC3)ccc12,inactive,
Cc1cc2c(cc(C(=O)N3CCC(C(=O)NC4CCCC4)CC3)n2Cc2c(F)cccc2Cl)o1,active: 23.1 µM,
CC1CCC(C)(NS(=O)(=O)OCC(Cl)(Cl)Cl)CC1 (stereo unspecified),"inconclusive: 29.1 µM [inhibitor, single point]",
Cc1ccccc1C(=O)Nc1ccc(C(=O)OCc2cc(=O)n3nc(C4CC4)sc3n2)cc1,"inconclusive: 29.1 µM [inhibitor, single point]",
OCC1CN1C1CCCCC1 (stereo unspecified),"inconclusive: 20.6 µM [inhibitor, single point]",
COc1ccc(C(c2nnnn2C2CCCCC2)N2CCC3(CC2)C(=O)NCN3c2ccccc2)cc1 (stereo unspecified),"inconclusive: 25.9 µM [inhibitor, single point]",
O=C(O)c1cc(Oc2ccc(C(F)(F)F)cc2Cl)ccc1[N+](=O)[O-],inactive,
Cc1ncc2n1-c1ccc(Cl)cc1C(c1ccccc1F)=NC2,"inconclusive: 33.5 µM [inhibitor, single point] and inconclusive: 29.1 µM [inhibitor, single point]",
c1ccc2c(N3CCNCC3)nsc2c1,active: 13 µM,
CSc1ccc(/C=C/c2nc3ccccc3c(=O)n2-c2cccc(Cl)c2C)cc1,"inconclusive: 16.4 µM [inhibitor, single point]",
Cc1cc(OCC(=O)N2CCN(CCc3ccncc3)CC2)ccc1Cl,"inconclusive: 20.6 µM [inhibitor, partial curve]",
